# Measurements as given in PubChem BioAssay AID485344 (National Center for Advancing Translational Sciences (NCATS), 2010).
# In all, about 340,000 compounds went through this assay and about 6,900 (2%) were called active. Cut-off read from the data, not from the text of the source: active = inhibition above about 30%; inactive = below that, where a call was filed. The entries are a selection whose mix differs from that of the whole data set. Entries without a call were filed so in the source.
# Target: D(2) dopamine receptor (Homo sapiens) (UniProt P14416)
# Assay: HTS Assay for Allosteric Antagonists of the Human D2 Dopamine Receptor: Primary Screen for Antagonists; note: 0% is about no effect
# Conditions: HEK293 TREx D2 cells, calcium flux, dopamine EC80; at 10 µM; stronger effect = higher value
# Summary of the method: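 HEK293 T-REx D2 cells, tet-induced, calcium dye no-wash. Cpd pintool add, 180 s kinetic, then EC80 DA, 180 s kinetic. Ca flux read.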
# UniProt P14416, sequence (P14416 whole entry, looked up): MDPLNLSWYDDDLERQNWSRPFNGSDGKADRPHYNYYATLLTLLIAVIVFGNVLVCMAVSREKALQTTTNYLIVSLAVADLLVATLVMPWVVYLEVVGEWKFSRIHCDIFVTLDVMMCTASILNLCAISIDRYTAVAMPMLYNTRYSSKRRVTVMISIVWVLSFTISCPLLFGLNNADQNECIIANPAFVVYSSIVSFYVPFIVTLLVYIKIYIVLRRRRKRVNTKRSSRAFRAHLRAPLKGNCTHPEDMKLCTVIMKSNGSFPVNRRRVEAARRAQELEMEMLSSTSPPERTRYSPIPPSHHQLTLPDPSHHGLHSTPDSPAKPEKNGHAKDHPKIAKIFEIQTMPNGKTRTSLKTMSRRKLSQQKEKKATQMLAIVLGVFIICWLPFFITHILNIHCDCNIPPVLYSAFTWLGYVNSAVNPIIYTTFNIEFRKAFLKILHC
row,SMILES,inhibition
1,Cc1nn2c(=O)cc(COC(=O)c3ccco3)nc2s1,-5.4%
2,COc1cccc(CNCCSc2nnnn2C)c1OCc1ccccc1Cl,16%
3,COc1cccc(CNS(=O)(=O)c2ccc3c(c2)CCN3C(=O)C2CCC2)c1,4.81%
4,O=C(c1ccco1)n1nc(-c2ccccc2)nc1NCc1ccc(Cl)cc1,5.1%
5,Cc1nn(-c2ccccc2)c2c1N(CCCC(=O)NCc1ccc(N(C)C)cc1)C(=O)CS2,1.63%
6,CCc1ccc(NCc2cc3ccc(OC)cc3n(CC(=O)Nc3ccc(F)cc3F)c2=O)cc1,16.5%
7,CCC(=O)N1c2ccccc2CC1C(=O)N1CCN(c2cccc(Cl)c2)CC1 (stereo not drawn),1.11%
8,CCC(=O)N1CCc2cc(S(=O)(=O)CCC(=O)Nc3ccc(OC(F)(F)F)cc3)ccc21,-2.4%
9,COc1ccc(CC(=O)Nc2sc3c(c2C(=O)Nc2cccc(Cl)c2)CCCCC3)cc1,-5.09%
10,CC(C)Oc1ccc(CNC(=O)CCCN2C(=O)CCn3nc(-c4cccn4C)cc32)cc1,2.62%
11,COc1ccccc1N1CCN(C(=O)C(CCSC)NS(=O)(=O)c2ccc3c(c2)oc(=O)n3C)CC1 (stereo not drawn),14.8%
12,Cc1ccc(C)c(OCCC(=O)NNC(=O)c2ccncc2)c1,active: 43.4%
13,COC(=O)CSc1ncc2c(n1)-c1ccccc1N(Cc1ccccc1C)S2(=O)=O,-3.61%
14,Cc1cccc(-c2nc(C)c(CCNC(=O)C(=O)Nc3cccc(Cl)c3C)s2)c1,-16.9%
15,O=C(Cn1cc(SCc2ccc(C(F)(F)F)cc2)c2ccccc21)N1CCOCC1,-10.2%
16,O=C(NCc1ccccc1)c1cc2sccc2n1Cc1ccc(Cl)cc1,-3.02%
17,CCCCSc1nc(-c2ccc(OC)cc2)ccc1C#N,-4.97%
18,Cc1ccc(-c2nc(-c3cc4c([nH]c3=O)CC(C)(C)CC4=O)sc2C)cc1,-17.3%
19,COC(=O)c1ccccc1NC(=O)Cn1c(CCC(=O)O)ccc1-c1cccs1,1.43%
20,CC(=O)Nc1ccc(/C=C/c2nc(-c3ccccc3O)n(-c3ccccc3)n2)cc1,0.172%
21,Cn1c(=O)oc2cc(S(=O)(=O)N3CCCC(C(=O)NCCc4ccc(Cl)cc4)C3)ccc21 (stereo not drawn),-3.56%

row,SMILES,inhibition
1,COc1ccccc1CNS(=O)(=O)c1ccc2c(c1)NC(=O)C(C)C(=O)N2 (stereo not drawn),6.21%
2,CCOc1ccc(Br)cc1S(=O)(=O)N1CCCC1,active: 53.6%
3,Cc1ccc2occ(CC(=O)N(Cc3ccccc3Cl)C3CCS(=O)(=O)C3)c2c1 (stereo not drawn),-1.29%
4,OCCC1CN(Cc2cc(F)ccc2F)CCN1CCCc1ccccc1 (stereo not drawn),active: 83.2%
5,O=C(CSc1oc(-c2ccccc2)nc1S(=O)(=O)c1ccc(Cl)cc1)Nc1ccc(F)cc1,-6.06%
6,CC1CCC(Nc2nc3c(-c4ccc(Cl)cc4)nnn3c3ccccc23)CC1 (stereo not drawn),4.75%
7,Cc1ccc(Cn2cc(CCC(=O)NC3CCC(C)CC3)c3ccccc32)cc1 (stereo not drawn),7.58%
8,N#Cc1c[nH]n2c(NC3CCCCC3)c(-c3ccccc3F)nc12,15.1%
9,Cc1c(-c2nsc(NC(=O)c3cccs3)n2)nnn1-c1ccc(Cl)cc1,4.9%
10,O=C(C1CCN(S(=O)(=O)c2cccs2)CC1)N1CCN(c2cccc(Cl)c2)CC1,25.5%
11,CCSc1ncc(Cl)c(C(=O)N(Cc2ccccc2Cl)C2CCS(=O)(=O)C2)n1 (stereo not drawn),14.4%
12,CCN(CC)CCCNC(=O)c1ccc2c(c1)N(Cc1c(F)cccc1Cl)C(=O)c1ccccc1S2,-21.6%
13,COC(=O)c1nnn(CC(=O)Nc2cc(F)ccc2F)c1C(=O)OC,-1.76%
14,O=C(NCCc1ccc(Cl)cc1)C(=O)NCC(c1ccco1)S(=O)(=O)c1cccs1 (stereo not drawn),14.3%
15,Cc1cccc(-n2ncc(C(=O)N3CCc4ccccc4C3)c2C2CCN(C(=O)OC(C)(C)C)CC2)c1,10.5%
16,Cc1oc2ccc(O)c(CN3CCCCCC3)c2c1C(=O)Nc1cccc(Cl)c1C,17.1%
17,CCOc1ccc(S(=O)(=O)N2CCC(N3CCN(Cc4ccc(F)cc4)C(=O)C3=O)CC2)cc1,-1.5%
18,CC(=O)c1cccc(NCc2ccccc2-c2nnc(-c3ccccc3)o2)c1,-2.14%
19,Cc1cccc(NC(=O)CSc2nnc(N)s2)c1,7.76%
20,O=C(NC1(C(F)(F)F)NC(=O)N(CCc2ccccc2)C1=O)c1ccccc1Cl (stereo not drawn),22.3%
21,Cc1nc(-n2nc(C)c(Cc3ccccc3Cl)c2C)sc1C(=O)N1CCC(C)CC1,-8.65%

row,SMILES,inhibition
1,O=C(CCn1cccn1)NCc1ccc(Cl)cc1,5.87%
2,CCOC(=O)C(CC)Sc1ncnc2sc3c(c12)CCCC3 (stereo not drawn),2.32%
3,Cc1ccc(OCCSc2nc3ccc(NC(=O)c4ccc5c(c4)OCO5)cc3s2)cc1,-23.8%
4,O=C(Nc1ccc(F)cc1)C1CCN(c2nc3ccccc3n3cccc23)CC1,19.8%
5,CCOC(=O)C1CCCN(C(=O)c2c(C)nn(-c3ccc(F)cc3)c2-n2cccc2)C1 (stereo not drawn),-4.05%
6,COc1ccc(NC(=O)c2cc3c(=O)n(C)c4ccccc4c3s2)cc1Cl,8.03%
7,CCOc1ccc(-c2cc3c(=O)n(CC(=O)NCc4ccc(OC)cc4)ccn3n2)cc1,0.498%
8,CCCc1ccc(OC(=O)CSc2nnc(-c3cccs3)o2)cc1,26.8%
9,CSc1ccc(CCNC(=O)CCn2c(=O)c3cccn3c3cccnc32)cc1,-6.26%
10,O=C(Nc1ccc(N2CCCCC2)cc1)c1cccnc1,active: 33.9%
11,Cc1ccc(-c2nc3ccccc3o2)cc1NC(=O)c1cccc2c(Cl)cccc12,6.55%
12,CCC(=O)N1c2ccccc2CC1C(=O)NCCN1CCN(c2cccc(C)c2C)CC1 (stereo not drawn),7.74%
13,Cc1nc2sccn2c(=O)c1S(=O)(=O)Nc1ccc(N2CCN(S(C)(=O)=O)CC2)cc1,-25.8%
14,Cc1ccc(/C=[N+](\[O-])c2ccc(N(C)C)cc2)c2nsnc12,active: 48.4%
15,O=C(CSc1nc(-c2ccccc2)[nH]c1-c1ccccc1)Nc1ccc2c(c1)OCO2,20.8%
16,Cc1cccc(Nc2nc(-c3ccccc3)c3cc(C)ccc3n2)c1,5.67%
17,Cc1ccccc1NCc1cccn1-c1nnc(N2CCOCC2)s1,-7.16%
18,O=[N+]([O-])c1cc(-c2nc(-c3ccccc3)no2)ccc1N1CCCC1,-8.26%
19,CCC(Sc1nc2c(sc3ccccc32)c(=O)n1CCCC(=O)NC1CCCC1)C(=O)Nc1cccc(OC)c1 (stereo not drawn),-11.8%
20,COc1cccc(CNC(=O)CCc2nnc3n(CC(C)C)c(=O)c4ccccc4n23)c1,-9.06%
21,Cc1sc2c(c1C)c(=O)n(-c1ccccc1)c(=O)n2CC(=O)c1ccc(Cl)cc1,-14.2%
